# Paper PMC12040169 (PLOS Biology, 2025)
# This is one part of the list.
# Tested on: T1, C. trachomatis L2/434/Bu expressing GFP (CTL2-GFP)
# T1 construct: L2/434/Bu GFP intracellular growth in HeLa cells
# Parameters: species or system HeLa; C. trachomatis total inclusion area by high-content imaging, normalised to DMSO
# Conditions: total inclusion area; 28.5 h, 10 µM; inhibitor
# Summary of the method: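 High-content imaging followed the bulk GFP/resorufin measurement: fixed, Hoechst-stained cells were scored for GFP inclusions and host nuclei per well. Total inclusion area and count served as growth proxies, nuclei number as the viability proxy. MIC calculation matched the bulk assay.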
row,Structure (SMILES),% of control remaining
1,O=C(CCCC1CCNCC1)Nc1nnc(C2CC2)s1 [CBK169224],83.939
2,COc1cc([N+](=O)[O-])ccc1NC(=S)NNS(=O)(=O)c1cc(Cl)c(Cl)cc1Cl [CBK266863],114.407
3,N#Cc1c2c(c(Nc3ccc(C4CCCCC4)cc3)n3c1nc1ccccc13)CCC2 [CBK263122],96.6443
4,CCN1CCCC1CNC(=O)c1cc(Br)cnc1N(C)S(C)(=O)=O (centres unmarked) [CBK076520],98.2812
5,O=C(CC1(O)C(=O)N(Cc2ccccc2Cl)c2ccccc21)c1cc2ccccc2oc1=O (centres unmarked) [CBK265255],98.7154
6,O=C(Nc1ccc(S(=O)(=O)N2CCCCC2)cc1)c1ccc(NS(=O)(=O)c2ccccc2)cc1 [CBK268348],98.7835
7,O=C(NC1CCCC1)c1cc(=O)n(Cc2ccc(Cl)cc2)c2ccccc12 [CBK294464],133.233
8,C=CCN(CC=C)CCOc1c(C)cc(C)cc1Br [CBK266070G],92.9394
9,O=c1[nH]c2ccc(Cl)cc2c(-c2ccccc2)c1N1CCN(Cc2ccc3c(c2)OCO3)CC1 [CBK265776],78.6829
10,CC(=O)Nc1cc(C(=O)NCc2ccc(F)cc2)ccc1Sc1ccc(Cl)cc1 [CBK294468],97.2848
11,CN(C)Cc1cc(-c2ccccc2F)nn1CCNC(=O)C1CCC1 [CBK283471],90.8009
12,NC(=O)C(=O)c1c(-c2ccccc2)cc2ccccn12 [CBK288466],34.8844
13,Cc1cc(=O)n(CC(=O)N2CCC3(CCCN(C(C)C)C3=O)C2)nc1C (centres unmarked) [CBK307482],99.7269
14,Cc1ccc(-c2nc(C3CCCN(C(=O)NC4CCCCC4)C3)n3ccccc23)cc1 (centres unmarked) [CBK047241],66.6753
15,COC(=O)c1c(NC(=S)Nc2ccc(Br)cn2)sc2c1CCC(C)C2 (centres unmarked) [CBK266962],116.597
16,CC(C)n1c(NCc2nc3ccccc3n2C)nc2ccccc21 [CBK265571],94.9699
17,Clc1ccc(CN2CCN(c3nccnc3OCc3cccnc3)CC2)cc1Cl [CBK083128T],92.9615
18,Cc1ccc(C(=O)Nc2cccc(-c3nc4ncccc4o3)c2C)cc1[N+](=O)[O-] [CBK262793],112.263
19,CS(=O)(=O)Nc1ccc(C(=O)N2CC(=O)Nc3ccccc32)cc1 [CBK269827],76.7586
20,Cc1c(-c2cccc(Cl)c2)nc2ccccc2c1C(=O)NCCc1ccc(S(N)(=O)=O)cc1 [CBK267784],98.4251
21,Cc1nn(C)c(Cl)c1S(=O)(=O)NCc1ccc(C(F)(F)F)c(F)c1 [CBK062111],103.261
22,CC(=O)c1ccc(-c2ccc(C(=O)NCCc3ccc(S(N)(=O)=O)cc3)c(N(C)C(C)=O)n2)s1 [CBK076621],109.281
23,CCCC(=O)c1ccc(S(=O)(=O)N2CCCN(Cc3ccc(C#N)cc3)CC2)cc1 [CBK062895],42.7634
24,O=C(C1CCCC1)N1CCCc2cc(C(O)CN3CCCC3)ccc21 (centres unmarked) [CBK282145],77.6787
25,CC(C)(C)c1ccc(-c2nc(N)cc3ccccc23)cc1 [CBK085720],69.29
26,COc1cccc(/C=C2/SC(=S)NC2=O)c1OCCCOc1ccccc1C [CBK264442],108.7
27,CN(C)CCOCCS(=O)(=O)c1ccc(N2CCC(c3ccc(Cl)cc3)=N2)cc1 [CBK018115],16.9445

row,Structure (SMILES),% of control remaining
1,Cc1cc(C)nc(Nc2ncc(O)n2-c2ccccc2C)n1 [CBK263024],101.427
2,Cc1ccc(NC(=O)c2ccc(-c3cccc([N+](=O)[O-])c3)o2)cc1-c1nc2ncccc2o1 [CBK262947],64.7269
3,O=C(O)CCc1ccc(S(=O)(=O)N2CCOCC2)cc1 [CBK287224],79.773
4,O=C(C1CCCC1)N1C[C@@H]2CCCCN(CC3CC3)[C@@H]2C1 [CBK285493],99.7126
5,O=C(Cn1cc(C(=S)N2CCOCC2)c2ccccc21)Nc1ccc2c(c1)OCO2 [CBK266703],107.961
6,Cc1cc(Cl)c(OCCN2CCCCCC2)c(Br)c1 [CBK266049G],79.9824
7,CN1CCC(CNC(=O)C2(c3ccccc3F)CC2)(N(C)C)CC1 [CBK282604],116.147
8,O=C(c1nccs1)C1CCN(C(=O)Cc2ccccc2F)CC1 [CBK284161],87.3976
9,CC(C)(C)NC(=O)c1ccc(-n2ccnc2)c(-n2cccc2)c1 [CBK284811],111.292
10,CCN(CC)C(=O)CN1CCC(c2ccc(F)cc2)CC1 [CBK285475],98.1076
11,Cc1noc(C)c1S(=O)(=O)Nc1cccc(C(=O)N2CCN(C)CC2)c1 [CBK038972],90.0699
12,COCC(=O)N1CCC(Cc2ccc(-c3cccc(C)c3)cc2)(C(=O)NC(C)C)CC1 [CBK285759],106.049
13,O=C1CCCCC1SCn1nnc2ccccc21 (centres unmarked) [CBK011412],60.6004
14,Cc1ccc(N2C(=O)CSC23C(=O)Nc2ccc(Br)cc23)cc1 (centres unmarked) [CBK093453],83.8017
15,C/C(=N\O)c1ccc(S(N)(=O)=O)cc1 [CBK007871],107.392
16,CN(C)C(C)(C)COc1ncccc1OCCO [CBK042184],98.9409
17,CC(C)(C)OC(=O)N1CCCN(Cc2nnc(-c3ccco3)o2)CC1 [CBK305271],73.7955
18,COc1ccc(N2CCN(C(=O)CCC(F)(F)F)CC2)cc1 [CBK091419],87.3335
19,c1ccc2cc(-c3cc(Nc4ccc5[nH]ccc5c4)ncn3)ccc2c1 [CBK090853],89.2019
20,COc1ccc(C)cc1S(=O)(=O)N(CC(=O)O)c1ccc(Cl)c(Cl)c1 [CBK269095],96.5042
21,CCCNc1cncc(-c2ccc(OCC)cc2)n1 [CBK065845],73.278
22,COc1ccc(CCC(=O)Nc2cc(N3CCNCC3)ncn2)cc1 [CBK004231T],88.8826
23,Cc1cnc(CNC(=O)N2CCN(c3ccccc3)CC2)cn1 [CBK155174],50.326
24,CCC(C)NC(=O)c1ccc2nccnc2c1 (centres unmarked) [CBK268921],89.9343
25,Cn1nc(C(Cc2ccccc2)NC(=O)c2ccco2)c2cccnc21 (centres unmarked) [CBK285223],127.02
26,CCC(Oc1ccccc1)C(=O)Nc1sc2c(c1C#N)CCCC2 (centres unmarked) [CBK262091],82.2236
27,Fc1ccc2[nH]c3c(c2c1)CCOC31CCN(C/C=C\c2ccccc2)CC1 [CBK040141],8.541

row,Structure (SMILES),% of control remaining
1,Cc1csc(Nc2cccc(C3CCCN3C(=O)CCOc3ccccc3C)n2)n1 (centres unmarked) [CBK285977],87.0822
2,CCN1CC2(CCN(CCCn3c(=O)[nH]c4ccccc43)CC2)c2ccccc21 [CBK131483],95.7666
3,CCNc1nc(-c2ccc3c(c2)CCCN3S(C)(=O)=O)cs1 [CBK305861],65.2604
4,CCN(CC)CCn1c(=N)n(CC(=O)c2ccc(Cl)c(Cl)c2)c2ccccc21 [CBK263455B],114.457
5,CCOc1ccc(-c2cncc(NCCc3c[nH]c4ccccc34)n2)cc1 [CBK065876],112.528
6,COc1ccc(Nc2ccc(-c3ccc(C(=O)O)cc3)cn2)cc1 [CBK037654],76.2556
7,O=C(Cc1ccccc1)N/N=C/C1CC2CC1CC2C(F)(F)F (centres unmarked) [CBK021488],98.455
8,Cc1c[nH]c(CN(C)c2cc([C@H]3C[C@@H](N)C3)nc(N3CCCC3)n2)n1 [CBK306798],62.492
9,CCOC(=O)C1CCCN(C(=O)Nc2cc(C)on2)C1 (centres unmarked) [CBK305661],62.2815
10,CN(C)c1ccc(NC(=O)CC2S/C(=N/c3ccccc3)N(c3ccccc3)C2=O)cc1 (centres unmarked) [CBK265644],91.8935
11,Cc1cccc(C)c1NC(=O)Cn1c(SCC(N)=O)nc2ccccc21 [CBK266684],88.749
12,O=C1CCC(=O)N1CCOc1nccnc1OC1CCN(Cc2ccc(Cl)c(Cl)c2)CC1 [CBK084335],83.2762
13,O=C(c1ccccn1)N1CCCC(c2cc3ccccc3cn2)C1 (centres unmarked) [CBK282832],123.663
14,c1cnn(CCCNc2nc3nonc3nc2N2CCCCCC2)c1 [CBK307318],60.2873
15,Cc1nnnn1-c1cc(NC(=O)NCC2CCCO2)ccc1F (centres unmarked) [CBK305528],73.5053
16,CN1CCCN(c2cnn(Cc3ccc(Cl)s3)c(=O)c2)CC1 [CBK307123],57.3258
17,CCCNc1nccnc1-c1cccc(CO)c1 [CBK088897],119.73
18,Cc1ccc(CN(Cc2cncn2C)C2CC(C)(C)NC(C)(C)C2)o1 [CBK283192],87.2947
19,Cc1ccc2c(c1)C(=O)NCC1(CCN(Cc3ccccc3)CC1)O2 [CBK285048],108.874
20,OCCNc1nc(O)cc(C(F)(F)F)n1 [CBK001804],76.8385
21,Nc1ccc(CCNC(=O)c2cnc(-c3ccc(Cl)cc3)c(-c3ccco3)c2)cc1 [CBK036686],73.0094
22,O=C(O)c1ccc(/C=N/Nc2cccc3cccnc23)cc1 [CBK262372],107.946
23,Nc1ncc(-c2occc2C=O)nc1-c1ccc(F)c(Cl)c1 [CBK064005],84.7531
24,COc1ccc2c(c1Br)C=C(n1ccnc1)CC2 [CBK017808],52.1898
25,COCC(=O)N1CCc2sccc2C1c1ccc(NCc2ccc(F)cc2)cc1 (centres unmarked) [CBK286445],108.839
26,CSc1ccc(CNCCc2c[nH]c3ccccc23)cc1 [CBK262126],98.0352
